The list shows a part of the results. The list includes weakly bound sequences.

In this experiment the target is T1, MBP-FoxP3dN (UniProt Q99JB6).
T1 sequence: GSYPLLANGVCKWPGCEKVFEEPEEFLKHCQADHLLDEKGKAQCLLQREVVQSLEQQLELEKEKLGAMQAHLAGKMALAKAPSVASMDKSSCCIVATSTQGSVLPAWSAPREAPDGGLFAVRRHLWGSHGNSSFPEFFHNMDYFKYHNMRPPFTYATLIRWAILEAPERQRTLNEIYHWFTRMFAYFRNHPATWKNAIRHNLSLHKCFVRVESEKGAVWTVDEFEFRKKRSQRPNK
Briefly: PD-seq (MBP pull-down with sequencing). The conditions noted are these: 20 mM Tris-HCl pH 7.5, 100 mM NaCl, 1.5 mM MgCl2, 0.4 uM protein, 0.1 uM dsDNA library, 30 min, room temperature, amylose pull-down; high values mean tight binding; double strand, one strand shown.
“GATGATTGTTCTCCCAGCTGATGAATTCGATCGGTCGAGTAAACAAATTTTCCTAATCTTTCTGTTCAAGCGCCATCTAC”: the binding signal (RPM ratio (pull-down/input)) is 0.26.
In the case of “GATGATTGTTCTCCCAGCTGATGAATTTGCATGATCGAGTAAACAAATTTTCCTAATCTTTCTGTTCAAGCGCCATCTAC”, the binding signal (RPM ratio (pull-down/input)) was 1.63.
To “GATGATTGTTCTCCCAGCTGATGAATTACCTGGCTCGAGTAAACAAATTTTCCTAATCTTTCTGTTCAAGCGCCATCTAC” belongs 0.265; to “GATGATTGTTCTCCCAGCTGATGAATTTGACAGGTCGAGTAAACAAATTTTCCTAATCTTTCTGTTCAAGCGCCATCTAC”, 0.38; to “GATGATTGTTCTCCCAGCTGATGAATTACAGACTTCGAGTAAACAAATTTTCCTAATCTTTCTGTTCAAGCGCCATCTAC”, 0.496.
Under “GATGATTGTTCTCCCAGCTGATGAATTAAGCCGGTCGAGTAAACAAATTTTCCTAATCTTTCTGTTCAAGCGCCATCTAC” stands 0.368; under “GATGATTGTTCTCCCAGCTGATGAATTAGCCGCCTCGAGTAAACAAATTTTCCTAATCTTTCTGTTCAAGCGCCATCTAC”, 0.547.
Take “GATGATTGTTCTCCCAGCTGATGAATTATTACATTCGAGTAAACAAATTTTCCTAATCTTTCTGTTCAAGCGCCATCTAC”: the binding signal (RPM ratio (pull-down/input)) stood at 0.591.
To “GATGATTGTTCTCCCAGCTGATGAATTTCACGAGTCGAGTAAACAAATTTTCCTAATCTTTCTGTTCAAGCGCCATCTAC” belongs 0.245.
As for “GATGATTGTTCTCCCAGCTGATGAATTGTTTTAGTCGAGTAAACAAATTTTCCTAATCTTTCTGTTCAAGCGCCATCTAC”, the binding signal (RPM ratio (pull-down/input)) came out at 1.21.
Under “GATGATTGTTCTCCCAGCTGATGAATTCCTGGTCTCGAGTAAACAAATTTTCCTAATCTTTCTGTTCAAGCGCCATCTAC” stands 0.287; under “GATGATTGTTCTCCCAGCTGATGAATTACCCGAGTCGAGTAAACAAATTTTCCTAATCTTTCTGTTCAAGCGCCATCTAC”, 0.183; under “GATGATTGTTCTCCCAGCTGATGAATTTAACCGATCGAGTAAACAAATTTTCCTAATCTTTCTGTTCAAGCGCCATCTAC”, 0.215.
Under “GATGATTGTTCTCCCAGCTGATGAATTGGGTAGGTCGAGTAAACAAATTTTCCTAATCTTTCTGTTCAAGCGCCATCTAC” stands 0.375; under “GATGATTGTTCTCCCAGCTGATGAATTGAACGGCTCGAGTAAACAAATTTTCCTAATCTTTCTGTTCAAGCGCCATCTAC”, 0.211.
Turning to “GATGATTGTTCTCCCAGCTGATGAATTACTTTAGTCGAGTAAACAAATTTTCCTAATCTTTCTGTTCAAGCGCCATCTAC”, the binding signal (RPM ratio (pull-down/input)) is 0.408.
To “GATGATTGTTCTCCCAGCTGATGAATTCTCACCTTCGAGTAAACAAATTTTCCTAATCTTTCTGTTCAAGCGCCATCTAC” belongs 0.268.
In the case of “GATGATTGTTCTCCCAGCTGATGAATTATGGGCCTCGAGTAAACAAATTTTCCTAATCTTTCTGTTCAAGCGCCATCTAC”, the binding signal (RPM ratio (pull-down/input)) stood at 0.571.

The values above are taken from publication PMC12820563.
